# Some of the results follow.
# B1: ClecSol-Fc (Cryptosporidium parvum) (protein)
# chain: CPEGWISNGEKTRCFKLVTFDRPRTFSHGFKACNDLGGTEVETRRRNGSKETNEYPVTLASVYKLSDEEAIRRTLVEQGDIHKTANGCFVGLRKYAFFRYPPGWYWIDSGSPVSVRDSEINWTSSYNASWLLRFKFPFEKCGFFDIGGLGRRPCWLIDSELSCAVCGTVAYDSGGLNPNKYSELIKQTDEIISKEPKLDLPGYNNLNCTDAWENNLSVGLCQNVSNILDSAWSSYQSSLNFPSINFNWKEDSTNEGGDQVYHNSYLDLPRYKQKKTFYWDQDPGTIPALSDEMKLIGLSAQPTYHPLDRSSSGSFESDSTESGRANEERNDTLEEMIYKQSSDSIEDILVPVTKPIFSDYSSIGRNSGVEEVYSSNVSTISSKGVVFPNTTTSSDNDFTKNNPANSSKHTSTSTTTNTTTTTTRTTTTTTTTTTTTTTTTTTTTETTTTKKSTTATKNTTTT
# Tests used:
# Assay in all cases: glycan array binding signal (z-score within array); higher = stronger binding
# Conditions in all cases: glycan notation: IUPAC condensed, linker removed
# [1] = molecular target: Gal(b1-4)GlcNAc(b1-2)Man(a1-3)[Gal(b1-4)GlcNAc(b1-2)Man(a1-6)]Man(b1-4)GlcNAc(b1-4)[Fuc(a1-6)]GlcNAc
# How it was run: (§1)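 The Consortium for Functional Glycomics database supplied 3228 glycan arrays, of which those lacking an available protein sequence were dropped. The binding signal, a within-array Z-score, was averaged across arrays of the same protein sequence and across linkers. Negative scores can be read as non-binding.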
# [2] = molecular target: Gal(b1-4)GlcNAc(b1-2)Man(a1-3)[Gal(b1-4)GlcNAc(b1-2)Man(a1-6)][Gal(b1-4)GlcNAc(b1-4)]Man(b1-4)GlcNAc(b1-4)[Fuc(a1-6)]GlcNAc
# How it was run: as §1
# [3] = molecular target: Gal(b1-4)GlcNAc(b1-2)Man(a1-3)[Gal(b1-4)GlcNAc(b1-2)Man(a1-6)][GlcNAc(b1-4)]Man(b1-4)GlcNAc(b1-4)[Fuc(a1-6)]GlcNAc
# How it was run: as §1
# [4] = molecular target: Gal(b1-4)GlcNAc(b1-2)Man(a1-3)[GlcNAc(b1-2)Man(a1-6)]Man(b1-4)GlcNAc(b1-4)GlcNAc
# How it was run: as §1
# [5] = molecular target: Gal(b1-4)GlcNAc(b1-2)Man(a1-3)[GlcNAc(b1-4)][Gal(b1-4)GlcNAc(b1-2)Man(a1-6)]Man(b1-4)GlcNAc(b1-4)GlcNAc
# How it was run: as §1
# [6] = molecular target: Gal(b1-4)GlcNAc(b1-2)Man(a1-3)[Man(a1-6)]Man(b1-4)GlcNAc(b1-4)GlcNAc
# How it was run: as §1
# [7] = molecular target: Gal(b1-4)GlcNAc(b1-2)Man(a1-6)Man(b1-4)GlcNAc(b1-4)GlcNAc
# How it was run: as §1
# [8] = molecular target: Gal(b1-4)GlcNAc(b1-2)Man(a1-6)[GlcNAc(b1-2)Man(a1-3)]Man(b1-4)GlcNAc(b1-4)GlcNAc
# How it was run: as §1
# [9] = molecular target: Gal(b1-4)GlcNAc(b1-2)Man(a1-6)[Man(a1-3)]Man(b1-4)GlcNAc(b1-4)GlcNAc
# How it was run: as §1
# [10] = molecular target: Gal(b1-4)GlcNAc(b1-2)[Gal(b1-4)GlcNAc(b1-4)]Man(a1-3)[Gal(b1-4)GlcNAc(b1-2)Man(a1-6)]Man(b1-4)GlcNAc(b1-4)GlcNAc
# How it was run: as §1
# [11] = molecular target: Gal(b1-4)GlcNAc(b1-2)[Gal(b1-4)GlcNAc(b1-4)]Man(a1-3)[Gal(b1-4)GlcNAc(b1-2)[Gal(b1-4)GlcNAc(b1-6)]Man(a1-6)]Man(b1-4)GlcNAc(b1-4)GlcNAc
# How it was run: as §1
# [12] = molecular target: Gal(b1-4)GlcNAc(b1-2)[Gal(b1-4)GlcNAc(b1-4)]Man(a1-3)[GlcNAc(b1-4)][Gal(b1-4)GlcNAc(b1-2)Man(a1-6)]Man(b1-4)GlcNAc(b1-4)GlcNAc
# How it was run: as §1
# [13] = molecular target: Gal(b1-4)GlcNAc(b1-2)[Gal(b1-4)GlcNAc(b1-4)]Man(a1-3)[GlcNAc(b1-4)][Gal(b1-4)GlcNAc(b1-2)[Gal(b1-4)GlcNAc(b1-6)]Man(a1-6)]Man(b1-4)GlcNAc(b1-4)GlcNAc
# How it was run: as §1
# [14] = molecular target: Gal(b1-4)GlcNAc(b1-2)[Gal(b1-4)GlcNAc(b1-6)]Man(a1-6)[Gal(b1-4)GlcNAc(b1-2)Man(a1-3)]Man(b1-4)GlcNAc(b1-4)GlcNAc
# How it was run: as §1
# [15] = molecular target: Gal(b1-4)GlcNAc(b1-2)[Gal(b1-4)GlcNAc(b1-6)]Man(a1-6)[Gal(b1-4)GlcNAc(b1-2)Man(a1-3)]Man(b1-4)GlcNAc(b1-4)[Fuc(a1-6)]GlcNAc
# How it was run: as §1
# [16] = molecular target: Gal(b1-4)GlcNAc(b1-2)[Gal(b1-4)GlcNAc(b1-6)]Man(a1-6)[GlcNAc(b1-4)][Gal(b1-4)GlcNAc(b1-2)Man(a1-3)]Man(b1-4)GlcNAc(b1-4)GlcNAc
# How it was run: as §1
# [17] = molecular target: Gal(b1-4)GlcNAc(b1-2)[Gal(b1-4)GlcNAc(b1-6)]Man(a1-6)[GlcNAc(b1-4)][Gal(b1-4)GlcNAc(b1-2)[Gal(b1-4)GlcNAc(b1-4)]Man(a1-3)]Man(b1-4)GlcNAc(b1-4)[Fuc(a1-6)]GlcNAc
# How it was run: as §1
# [18] = molecular target: Gal(b1-4)GlcNAc(b1-3)Gal(b1-3)GalNAc
# How it was run: as §1
# [19] = molecular target: Gal(b1-4)GlcNAc(b1-3)Gal(b1-3)GlcNAc
# How it was run: as §1
binder,measurement,setting,value
B1,glycan array binding signal (z-score),[1],0.081
same,glycan array binding signal (z-score),[2],-0.127
same,glycan array binding signal (z-score),[3],-0.22
same,glycan array binding signal (z-score),[4],-0.232
same,glycan array binding signal (z-score),[5],-0.166
same,glycan array binding signal (z-score),[6],0.042
same,glycan array binding signal (z-score),[7],-0.159
same,glycan array binding signal (z-score),[8],-0.184
same,glycan array binding signal (z-score),[9],-0.206
same,glycan array binding signal (z-score),[10],-0.221
same,glycan array binding signal (z-score),[11],-0.056
same,glycan array binding signal (z-score),[12],-0.119
same,glycan array binding signal (z-score),[13],-0.155
same,glycan array binding signal (z-score),[14],-0.221
same,glycan array binding signal (z-score),[15],-0.266
same,glycan array binding signal (z-score),[16],0.117
same,glycan array binding signal (z-score),[17],0.02
same,glycan array binding signal (z-score),[18],-0.152
same,glycan array binding signal (z-score),[19],-0.125
